Measurements: publication PMC8904574
These are yes or no findings as the source states them, for the method shown. For some assays here: In cells and extracts the contact can be indirect. Some results given as binding are weak or reduced against the parent protein; the word gives no strength. For some assays here: Where a sequence is shown, tags or fusion partners need not be part of it.

Protein sequences, listed by entry. Tags and fused reporters are not part of them. Lines headed by an entry give the natural chain unless they say otherwise; changes in a name come on top.
UniProt P50000: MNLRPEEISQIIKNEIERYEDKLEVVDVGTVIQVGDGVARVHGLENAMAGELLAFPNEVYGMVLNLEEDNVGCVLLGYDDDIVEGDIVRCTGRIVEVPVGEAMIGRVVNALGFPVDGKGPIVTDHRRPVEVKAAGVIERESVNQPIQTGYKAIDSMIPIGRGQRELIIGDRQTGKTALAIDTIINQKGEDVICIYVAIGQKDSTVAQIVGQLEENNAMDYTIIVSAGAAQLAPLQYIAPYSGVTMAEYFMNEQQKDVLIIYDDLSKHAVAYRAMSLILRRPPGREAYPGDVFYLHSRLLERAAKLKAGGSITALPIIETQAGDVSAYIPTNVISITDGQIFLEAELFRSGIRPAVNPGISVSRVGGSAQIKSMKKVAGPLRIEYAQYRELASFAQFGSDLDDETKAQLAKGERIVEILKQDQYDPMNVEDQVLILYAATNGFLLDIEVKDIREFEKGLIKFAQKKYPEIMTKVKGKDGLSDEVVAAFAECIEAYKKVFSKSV
UniProt P50002: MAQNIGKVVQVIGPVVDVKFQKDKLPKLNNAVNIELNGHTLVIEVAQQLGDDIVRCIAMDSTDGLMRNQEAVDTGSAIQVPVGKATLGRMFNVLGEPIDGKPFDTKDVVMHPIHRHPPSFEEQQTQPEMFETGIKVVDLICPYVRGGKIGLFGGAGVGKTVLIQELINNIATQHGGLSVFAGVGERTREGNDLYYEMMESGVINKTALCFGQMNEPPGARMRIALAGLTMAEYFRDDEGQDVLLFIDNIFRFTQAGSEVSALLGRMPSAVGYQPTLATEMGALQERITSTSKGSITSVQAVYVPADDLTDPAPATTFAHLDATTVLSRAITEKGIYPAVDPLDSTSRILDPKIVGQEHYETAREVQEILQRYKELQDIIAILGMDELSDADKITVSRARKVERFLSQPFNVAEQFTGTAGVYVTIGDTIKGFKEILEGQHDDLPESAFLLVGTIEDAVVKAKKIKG

Columns and labels:
[1] = target: in cellula αβ complex purified from E. coli (Acetobacterium woodii) (UniProt P50000+P50002); experiment: native MS; LILBID-MS; purified subunits incubated in 50 mM KPi, 200 mM NaCl, 2 mM ATP, 2 mM MgCl2, 10% glycerol, pH 7.4, 4 °C, 1 h; exchanged into 100 mM ammonium acetate, 2 mM ATP, 2 mM MgCl2, pH 7.4; both purified
[2] = target: in vitro assembled αβ heterodimer (StrepI-α with His6-β, in ATP/Mg2+ or other nucleotide/Mg2+) (Acetobacterium woodii) (UniProt P50000+P50002); experiment: as above
[3] = target: β-subunit of the F1 part of the Na+-F1FO-ATP synthase of Acetobacterium woodii, N-terminal His6 tag (Acetobacterium woodii) (UniProt P50002); experiment: pull-down + native MS; subunits co-expressed in E. coli, complex co-purified by affinity chromatography (Ni-NTA) and SEC, analysed by LILBID-MS and SDS-PAGE
[4] = target: β-subunit of the F1 part of the Na+-F1FO-ATP synthase of Acetobacterium woodii, N-terminal His6 tag (Acetobacterium woodii) (UniProt P50002); experiment: native MS; nESI ion mobility MS with collision-induced unfolding of the αβ heterodimer co-expressed in and purified from E. coli, in the presence of ATP and Mg2+; precursor selected at m/z 4950
[5] = target: T1, central stalk γε complex of the A. woodii F1 ATP synthase (atpG and atpC expressed bicistronically, His6 tag on ε) (Acetobacterium woodii) (UniProt P50005+P50009); experiment: native MS; LILBID-MS; purified subunits or purified complexes incubated without ATP/Mg2+ (ammonium acetate buffer without additives); both purified
T1 sequence 1: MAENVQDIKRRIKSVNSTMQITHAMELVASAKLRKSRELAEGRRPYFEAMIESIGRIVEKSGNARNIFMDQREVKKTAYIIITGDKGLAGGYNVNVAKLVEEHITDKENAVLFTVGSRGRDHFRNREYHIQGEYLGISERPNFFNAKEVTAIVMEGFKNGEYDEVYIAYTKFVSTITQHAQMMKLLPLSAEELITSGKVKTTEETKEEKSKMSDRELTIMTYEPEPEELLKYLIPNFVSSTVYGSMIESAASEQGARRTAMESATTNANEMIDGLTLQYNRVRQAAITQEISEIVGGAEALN
T1 sequence 2: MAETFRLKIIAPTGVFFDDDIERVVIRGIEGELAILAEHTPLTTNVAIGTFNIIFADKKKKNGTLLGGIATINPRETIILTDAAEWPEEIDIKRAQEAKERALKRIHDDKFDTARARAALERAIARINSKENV

[6] = target: β-subunit of the F1 part of the Na+-F1FO-ATP synthase of Acetobacterium woodii, N-terminal His6 tag (Acetobacterium woodii) (UniProt P50002); experiment: condition: only without ATP/Mg^2+ (ammonium acetate buffer without any additives); native MS; LILBID-MS; purified subunits or purified complexes incubated without ATP/Mg2+ (ammonium acetate buffer without additives); both purified
[7] = target: β-subunit of the F1 part of the Na+-F1FO-ATP synthase of Acetobacterium woodii, N-terminal His6 tag (Acetobacterium woodii) (UniProt P50002); experiment: SEC; HPLC on a bioZen 1.8 µm SEC-3 column, 60 µg protein, elution buffer A (50 mM KPi, 200 mM NaCl, pH 7.4) without ATP/Mg2+, 4 °C; both purified
[8] = target: T1, central stalk γε complex of the A. woodii F1 ATP synthase (atpG and atpC expressed bicistronically, His6 tag on ε) (Acetobacterium woodii); experiment: native MS; LILBID-MS; purified subunits incubated in 50 mM KPi, 200 mM NaCl, 2 mM ATP, 2 mM MgCl2, 10% glycerol, pH 7.4, 4 °C, 1 h; exchanged into 100 mM ammonium acetate, 2 mM ATP, 2 mM MgCl2, pH 7.4; both purified
[9] = target: T2, γ-subunit of the A. woodii F1 ATP synthase (untagged, only obtained co-expressed with other subunits) (Acetobacterium woodii) (UniProt P50005); experiment: as above
T2 sequence: T1 sequence 1

[10] = target: α-subunit of the F1 part of the Na+-F1FO-ATP synthase of Acetobacterium woodii, N-terminal StrepI tag (Acetobacterium woodii) (UniProt P50000); experiment: as above
[11] = target: β-subunit of the F1 part of the Na+-F1FO-ATP synthase of Acetobacterium woodii, N-terminal His6 tag (Acetobacterium woodii) (UniProt P50002); experiment: as above

## in cellula αβ complex purified from E. coli (from UniProt P50000 1-502; P50002 1-466)
[1]
  binding: no binding

## in vitro assembled αβ heterodimer (StrepI-α with His6-β, in ATP/Mg2+ or other nucleotide/Mg2+) (from UniProt P50000 1-502; P50002 1-466) (complex)
[2]
  binding: no binding

## α-subunit of the A. woodii F1 ATP synthase as co-expressed in the in cellula complexes (no tag of its own) (from UniProt P50000 1-502)
[3]
  binding: binds
[4]
  binding: binds

## α-subunit of the F1 part of the Na+-F1FO-ATP synthase of Acetobacterium woodii, N-terminal StrepI tag (from UniProt P50000 1-502)
[5]
  binding: no binding (condition: without ATP/Mg^2+)
[6]
  binding: no binding
[7]
  binding: no binding (condition: without ATP/Mg^2+)
[8]
  binding: binds weakly
[9]
  binding: binds weakly
[10]
  binding: no binding

## α[WT] with β[K159Q, R186Q, R251Q] (the two subunits incubated together in ATP/Mg2+) (from UniProt P50000 1-502; P50002 1-466) (complex)
[8]
  binding: no binding

## α[WT] with β[K159Q] (the two subunits incubated together in ATP/Mg2+) (from UniProt P50000 1-502; P50002 1-466) (complex)
[8]
  binding: no binding

## α[WT] with β[R186Q] (the two subunits incubated together in ATP/Mg2+) (from UniProt P50000 1-502; P50002 1-466) (complex)
[8]
  binding: no binding

## α[WT] with β[R251Q] (the two subunits incubated together in ATP/Mg2+) (from UniProt P50000 1-502; P50002 1-466) (complex)
[8]
  binding: no binding

## β-subunit of the F1 part of the Na+-F1FO-ATP synthase of Acetobacterium woodii, N-terminal His6 tag (from UniProt P50002 1-466)
[8]
  binding: binds weakly
[9]
  binding: binds weakly
[11]
  binding: no binding
